Test results as given in PubChem BioAssay AID588453 (National Center for Advancing Translational Sciences (NCATS), 2011).
Out of some 390,000 compounds screened, about 4,000 (1%) were called active. The inconclusive results got no clear call from the source; some entries with a clear call stand among them for comparison. Calls follow the shape of the dose curve; as a rule, active = well fitted inhibition curve with a large enough effect; inconclusive = small, poorly fitted or top-dose-only effect; inactive = no such curve, though single readings can be large or run the other way. Potencies of inconclusive entries are doubtful fits and often do not repeat.

molecular target: Thioredoxin reductase 1, cytoplasmic (Rattus norvegicus) (UniProt O89049); experiment: qHTS Assay for Inhibitors of Mammalian Selenoprotein Thioredoxin Reductase 1 (TrxR1): qHTS; conditions: recombinant rTrxR1, NADPH fluorescence consumption, selenite substrate; series mostly up to 114 µM; activity change, negative = inhibition: at the top concentration; also: nearly all actives have a fitted effect of over 65% in size
In short: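 Rat TrxR1 (90 nM in the dispensed reagent) was pre-reduced with 400 uM NADPH for 5 min at room temperature, then incubated with compound for 15 min. After 400 uM selenite was added, NADPH fluorescence (Ex 340/Em 450 nm) was followed for 8 min.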
% is scaled to controls: 0 for no effect and ±100 for the full control effect; potency is read from the fitted curve at half-maximal effect; tags tell the direction and shape of the fitted curve.

Sequence of UniProt O89049 (O89049 whole entry, looked up): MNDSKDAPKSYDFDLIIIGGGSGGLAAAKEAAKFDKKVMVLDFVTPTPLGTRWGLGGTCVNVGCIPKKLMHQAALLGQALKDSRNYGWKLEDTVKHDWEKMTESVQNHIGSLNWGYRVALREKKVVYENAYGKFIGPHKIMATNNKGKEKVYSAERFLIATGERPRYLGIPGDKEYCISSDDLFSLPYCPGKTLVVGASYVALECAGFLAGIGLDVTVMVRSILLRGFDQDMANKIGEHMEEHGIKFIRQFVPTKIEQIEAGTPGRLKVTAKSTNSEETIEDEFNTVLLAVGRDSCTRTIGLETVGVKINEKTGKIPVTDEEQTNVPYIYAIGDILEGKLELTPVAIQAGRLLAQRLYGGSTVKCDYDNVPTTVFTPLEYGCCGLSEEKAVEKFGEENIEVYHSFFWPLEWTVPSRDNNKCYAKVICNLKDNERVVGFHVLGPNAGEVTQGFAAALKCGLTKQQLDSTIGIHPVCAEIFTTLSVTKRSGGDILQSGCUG

| Structure (SMILES) | Potency | activity change, negative = inhibition |
| --- | --- | --- |
| COc1ccc2c(Sc3ccc(C)cc3)c(C(=O)NCc3ccc(F)cc3)[nH]c2c1 | inconclusive: 50.1 µM [inhibitor, partial curve] | – |
| O=C1C(C=NCCN2CCOCC2)=C(O)c2ccccc21 | – | inactive: 4.23% [at 57.1 µM] |
| O=C(O)c1ccc(NC(=S)NC(=O)c2ccc3ccccc3c2)cc1 | inconclusive: 20 µM [inhibitor, full curve] | – |
| CCOC(=O)c1ccc(N2C(=O)c3n[nH]c(-c4ccco4)c3C2c2ccc(OCC)cc2)cc1 (centres undefined) | – | inactive: 5.65% |
| COc1ccccc1S(=O)(=O)Cc1ccc(C(=O)NC2CCCCCC2)o1 | inconclusive: 12.6 µM [inhibitor, partial curve] | – |
| CCN(CC(=O)NCc1ccc(Cl)cc1)C(=O)/C=C/c1ccco1 | inconclusive: 39.8 µM [inhibitor, partial curve, poor fit] | – |
| CCN(CC)c1ccc2cc(C=O)c(=O)oc2c1 | inconclusive: 31.6 µM [inhibitor, partial curve] | – |
| Cc1ccccc1CNCc1ccc2c(c1)OCO2 | inconclusive: 89.1 µM [inhibitor, partial curve, poor fit] | – |
| CC1(C)N([O-])C(c2cccs2)=C[N+]1=O | – | inactive: 8.16% |
| Cc1cc(C)c(C)c(OCC(=O)Nc2ccc(S(=O)(=O)Nc3nc(C)cc(C)n3)cc2)c1 | – | inactive: 7.45% |
| COc1ccccc1NC(=O)CCn1nc(-c2ccccc2OC)c2c(C)cc(C)nc21 | – | inactive: -3.46% |
| CSCc1c(C(=O)OCC(=O)c2ccc[nH]2)oc2ccccc12 | inconclusive: 70.8 µM [inhibitor, single point] | – |
| COc1ccc2c(c1)c(C(O)CN1CCN(Cc3ccc4c(c3)OCO4)CC1)c(C)n2C (centres undefined) | inconclusive: 25.1 µM [inhibitor, single point] | – |
| CCOC(=O)C1CCCN(C(=O)c2cc3cc4ccc(OC)cc4nc3o2)C1 (centres undefined) | inconclusive: 89.1 µM [inhibitor, single point] | – |
| CCc1ccccc1OCC(=O)Nc1cccc(S(=O)(=O)NC2=NCCCCC2)c1 | – | inactive: 17% |
| O=C(C[n+]1cnn(CC(=O)c2ccc(Cl)cc2Cl)c1)c1ccc([N+](=O)[O-])cc1 | active: 50.1 µM | – |
| CCOC(=O)C1=C(O)/C(=C\c2cc(C)n(-c3ccccc3F)c2C)N=C1C | inconclusive: 28.2 µM [inhibitor, single point] | – |
| CC(C)c1nc2sc3c(=S)nc[nH]c3c2c2c1CCC2 | inconclusive: 3.98 µM [inhibitor, partial curve, poor fit] | – |
| Cn1cnc([N+](=O)[O-])c1S(=O)(=O)Oc1ccccc1 | inconclusive: 0.316 µM [inhibitor, full curve, poor fit] | – |
| O=C(NCc1ccccc1)NC1(C(=O)N2CCN(c3ncccn3)CC2)CCCCC1 | inconclusive: 11.2 µM [inhibitor, partial curve, poor fit] | – |
| COc1ccc(OC)c(NC(=O)c2c(NCc3sccc3C)sc3c2CCCCC3)c1 | inconclusive: 28.2 µM [inhibitor, single point] | – |
| COc1ccc2cc3cc(C(=O)NCCCN4CCOCC4)oc3nc2c1 | inconclusive: 31.6 µM [inhibitor, single point] | – |

| Structure (SMILES) | Potency | activity change, negative = inhibition |
| --- | --- | --- |
| CCOC(=O)/C(C#N)=C/c1cc2ccccc2nc1N1CCOCC1 | – | inactive: 14.4% [at 57.1 µM] |
| CCCCC1(C)OC(=O)C(=Cc2ccc(-c3ccc(Cl)c(C(=O)O)c3)o2)C(=O)O1 (centres undefined) | inconclusive: 39.8 µM [inhibitor, partial curve] | – |
| Cc1ccc(NC(=S)NCCc2ccc(S(N)(=O)=O)cc2)cc1C | – | inactive: -3.33% |
| Cc1cc(Sc2ncnc(N)c2[N+](=O)[O-])ncn1 | inconclusive: 0.708 µM [inhibitor, full curve] | – |
| O=C(CSc1cccc[n+]1[O-])Nc1cc2c(cc1Cl)C(=O)c1ccccc1C2=O | – | inactive: -18% |
| CCCCCCCCNc1ncnc2ccccc12 | inconclusive: 39.8 µM [inhibitor, single point] | – |
| Cc1cc2nn(-c3ccccc3)nc2cc1NC(=O)COc1ccc(Cl)cc1 | – | inactive: 12.8% |
| CCOCCCNC(=O)c1cc2c(=O)n3cccc(C)c3nc2s1 | inconclusive: 79.4 µM [inhibitor, single point] | – |
| COc1ccc(/C=C/C(=O)c2nc3ccccc3n2CC(=O)c2ccc(OC)cc2)cc1 | – | inactive: -0.56% |
| CC12CN3CC(=O)N4CC5(C)CN(CC(C)(C4)C5=O)C(=O)CN(C1)CC(C)(C3)C2=O | inconclusive: 0.282 µM [inhibitor, full curve, poor fit] | – |
| O=C(O)c1ccc(NC2=C(Cl)C(=O)c3ccccc3C2=O)cc1 | active: 0.501 µM | – |
| O=C1NN(c2ccccc2)C(=O)/C1=C\c1cccn1-c1ccc(Cl)c([N+](=O)[O-])c1 | inconclusive: 1 µM [inhibitor, full curve, poor fit] | – |
| CC(=O)Nc1ccc(-n2c(CCC(=O)O)ccc2-c2ccc(Br)cc2)cc1 | inconclusive: 56.2 µM [inhibitor, partial curve, poor fit] | – |
| Cc1[nH]c2ccccc2c1C(=O)CN1CC(C)CC(C)C1 (centres undefined) | inconclusive: 22.4 µM [inhibitor, full curve] | – |
| COc1cc(/C=C2\C(=O)NN(c3ccc(C)cc3)C2=O)cc([N+](=O)[O-])c1O | inconclusive: 25.1 µM [inhibitor, single point] | – |
| CC1CCN(C(=O)c2[nH]cnc2C(=O)Nc2ccon2)CC1 | inconclusive: 35.5 µM [inhibitor, single point] | – |
| Cc1cccc[n+]1CC(=O)c1ccc2c(c1)OCCO2 | – | inactive: 4.58% |
| Cc1ccc(CSCC2Nc3ccc(C(=O)N4CCN(c5ccc(F)cc5)CC4)cc3NC2=O)cc1 (centres undefined) | inconclusive: 35.5 µM [inhibitor, full curve] | – |
| O=C(CNc1cccc2ccccc12)N/N=C/c1ccc[nH]1 | – | inactive: 5.86% |
| CCOC(=O)c1cc(-c2ccc(C)o2)n[nH]1 | inconclusive: 31.6 µM [inhibitor, single point] | – |
| COc1ccc(Nc2ccccc2NC(=O)c2ccccc2Br)cc1 | – | inactive: 12.9% [at 0.0914 µM] |
| Cc1ccc(NC(=S)NC(=O)C2CCCC2)c(Br)c1 | inconclusive: 39.8 µM [inhibitor, partial curve] | – |
